# Data taken from the supplement of paper PMC3334620.
# Whole data set: some 33,000 sequences, median “E-score (-0.5 to 0.5)” near -0.013, cut for the highest 2% near 0.3. Some of the results follow.
# Biological target: T1, Msn1 (UniProt P22148)
# T1 sequence: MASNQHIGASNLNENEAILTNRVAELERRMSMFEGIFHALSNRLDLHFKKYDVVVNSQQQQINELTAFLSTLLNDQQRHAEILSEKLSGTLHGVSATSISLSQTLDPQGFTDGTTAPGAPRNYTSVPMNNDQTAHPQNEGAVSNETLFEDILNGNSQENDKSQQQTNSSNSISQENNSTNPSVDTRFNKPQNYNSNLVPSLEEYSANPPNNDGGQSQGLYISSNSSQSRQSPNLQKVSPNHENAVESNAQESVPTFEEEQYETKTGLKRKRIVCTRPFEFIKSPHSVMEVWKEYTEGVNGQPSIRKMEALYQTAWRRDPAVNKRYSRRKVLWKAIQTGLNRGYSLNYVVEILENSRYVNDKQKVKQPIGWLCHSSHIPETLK
# Test: PBM E-score (8-mer binding enrichment) (E-score (-0.5 to 0.5)); higher = stronger / more preferred TF binding; most listed sequences are background and not binding sites
# Conditions: protein concentration: 200 nM; construct: GST-full length
# Description: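 Universal 'all 10-mer' protein binding microarrays (Agilent AMADID 015681) probed with GST-tagged S. cerevisiae TFs (full-length or DBD) made by in vitro transcription/translation (PURExpress), about 100-200 nM. Bound TF was detected with fluorescent anti-GST. Each ungapped 8-mer (which stands for itself and its reverse complement) is scored by the PBM enrichment score (E-score), a modified Wilcoxon-Mann-Whitney statistic from -0.5 to +0.5, computed with the Universal PBM Analysis Suite. Scale: above 0.35 generally sequence-specific binding.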
row,Sequence,PBM E-score
1,GTTTCGCA,-0.183
2,GGGGCAGA,-0.0916
3,ACCCGCGT,-0.0692
4,AATCACTC,-0.0494
5,CATTCTAA,0.192
6,ATCAGAGA,-0.0186
7,ACGCACCA,-0.0921
8,ACTAAGCA,-0.131
9,CCTGCTGC,-0.123
10,ACTGAGTG,-0.015
11,GAAGTGTC,0.3
12,AGGTTTCA,-0.0133
13,ACGGGAAC,-0.0805
14,ACGTGTTA,0.0969
15,AGCGTTAA,-0.101
16,AGATAGCA,-0.0695
17,AGAAGGAA,-0.227
18,ATTGTTCA,-0.00578
19,GACTTTAC,0.218
20,CTAGGCGA,-0.164
21,CTGTTTGC,0.0999
22,CTACATGA,-0.0118
23,CGATTGAA,-0.0462
24,TAGCGCGA,-0.0744
25,AGGCCACG,-0.0116

row,Sequence,PBM E-score
1,CGATAGTA,-0.0716
2,AGCCAGAT,-0.117
3,GGAACTAA,0.119
4,CTGACGGC,-0.29
5,AATTACGC,-0.103
6,ATCACAGA,0.0512
7,AGGCAAAA,0.163
8,TATACAAA,0.183
9,GTCGACAA,0.101
10,ACAAGTTC,0.264
11,CCAATGAG,-0.213
12,AGCTGTCG,-0.172
13,ACCGAGAG,0.0203
14,AACGGACC,-0.0938
15,GCCGCTTA,-0.0427
16,CCGAAGAG,-0.1
17,GGGCGTGA,-0.0588
18,TAATCCAA,0.0107
19,CCCGAGTA,-0.0377
20,CCCCAAAC,-0.0578
21,CCCTCTCA,-0.308
22,ACTCGAAG,-0.168
23,ACCCCCAT,-0.388
24,CCGAACCC,-0.146
25,CGTGGGAG,-0.261

row,Sequence,PBM E-score
1,CTTCCTAA,-0.126
2,CCGCACTA,-0.0818
3,CGCTCGCA,0.175
4,AAAACAGA,0.052
5,GCCACGAA,-0.0669
6,ATACTTTC,0.0342
7,ACTCTGTC,0.0383
8,CTTGATAA,0.177
9,GTCAGCAC,-0.0865
10,CCGAATTA,-0.0486
11,CACGGTTC,-0.179
12,AAGCACCC,-0.177
13,AGAACAGG,-0.179
14,CATAATCC,-0.147
15,TTGTTAAA,0.0783
16,GCGCAGTA,-0.0517
17,GATCGTCC,0.019
18,ACTACGTC,4e-05
19,CTTGCCCC,-0.281
20,GAATGGGA,-0.158
21,ATATCTTC,0.0841
22,ACATCTGC,-0.127
23,CTGAGGAC,0.249
24,GGTGTCGA,-0.0245
25,ACCTACCT,-0.142

row,Sequence,PBM E-score
1,ATGACGCC,-0.166
2,AAATATGA,0.154
3,ATCGAACG,-0.081
4,CATGACCA,-0.0643
5,ATAATCAT,0.262
6,ACCAGATC,-0.0751
7,GGCTAGCA,-0.0616
8,CCCGTGCG,-0.169
9,AGGGTAAA,0.0917
10,CCAATCAA,0.0531
11,AACATATG,0.0946
12,AACTTAAT,0.154
13,ACATAGTA,0.0987
14,CCTTGAGA,0.0039
15,CTATGCGA,-0.00993
16,AAGGAAAA,0.0464
17,CCAGTATC,-0.0896
18,AGGGCAAT,-0.0482
19,AAGGCGGC,-0.115
20,ACAACGCG,0.158
21,CGATCCTA,-0.0181
22,AGGGAACC,-0.195
23,GAGCTCGC,-0.0509
24,GAGTGTAA,-0.154
25,GAGTTACC,-0.145

row,Sequence,PBM E-score
1,ACGGTTCA,-0.177
2,AGAGATCT,-0.157
3,AGGCACAA,-0.0855
4,GAACCGTC,0.0464
5,ACGGGCTC,-0.203
6,CAGAGCTC,-0.169
7,GCGCGACA,0.217
8,GCACCAAC,-0.139
9,CCCCACTA,-0.301
10,CAGCATAC,-0.143
11,GCCACTTA,-0.126
12,ATCTATTG,-0.0619
13,TACGACTA,0.176
14,GAGGTGCC,-0.0799
15,GGGAATGA,0.103
16,AGACGCGG,0.0366
17,TAGATGAA,0.00555
18,CCCGCAAC,0.0262
19,AAAAACTG,-0.142
20,GAGGCTAA,0.0456
21,CGGCAGGA,-0.192
22,CGGTGGCC,-0.171
23,ACGCTAGT,0.00346
24,CAACCTCA,-0.136
25,CTACTGCC,-0.127

row,Sequence,PBM E-score
1,GCCCTTGA,-0.0553
2,CGGAAGAA,0.0955
3,TACGAACA,0.235
4,AAGCTGCA,-0.00873
5,AAGCCTCT,-0.17
6,AAGGTGAG,-0.121
7,CAAATTGA,-0.0102
8,ACGGGTTG,-0.126
9,GGTAAGCA,-0.147
10,ATGGGCGC,-0.167
11,TCTGTTAA,0.0983
12,AGCACGCA,-0.135
13,AAACCCCT,-0.311
14,ACATGAGA,0.13
15,ATTAGAAC,0.201
16,ACTACGCT,-0.0331
17,TCAGGGCA,-0.175
18,TGCATCCA,-0.0633
19,CCGAAGTC,0.107
20,CTACGCCA,-0.291
21,GCACACCC,-0.217
22,GATTGTAA,0.0176
23,CAACTTAG,0.157
24,AAACGGAG,0.0722
25,CTGTTATA,0.0756

row,Sequence,PBM E-score
1,AAGCTATT,-0.141
2,ACGACGAG,-0.0108
3,CAACGGGC,0.0186
4,AAATTTAG,0.187
5,GCCAACGA,-0.0272
6,AACAAACA,0.133
7,CCGGAGCG,-0.00231
8,CCTGCGTC,-0.103
9,GATGTTCA,-0.0625
10,GACGGTCC,-0.152
11,ACAAGTTG,0.103
12,ATAATCCA,0.00465
13,ATAGGGAG,-0.371
14,GGGTACGA,-0.202
15,ATCTACAT,0.161
16,CCCACTTC,-0.00598
17,ATATCCAG,-0.0569
18,TAAACATA,0.157
19,CCGGTCGA,0.0772
20,AAACATAA,-0.163
21,TACAAGTA,0.0835
22,GCACCGGC,-0.0347
